According to the supplement of paper PMC11417369:
Some of the results follow.

system: PfHDP1 homeodomain (GST-tagged); assay: gcPBM binding intensity (ln(normalized median fluorescence intensity)); higher = stronger DNA binding
Outline: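 In this array assay, P. falciparum DNA-binding domains with a GST tag, expressed in E. coli, were applied for 1 h to primer-extended double-stranded 36-bp intergenic genomic probes and negative controls on an Agilent 4 × 180k array. Bound protein was visualised with Alexa488 anti-GST antibody at 488 nm. Binding intensity is the highest Masliner-normalised natural-log median intensity across replicate spots of either probe orientation.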

Compared with “CATCCACATAGATGTACACACATATATATATATATA [CACACA_site5616]”, “ATATGTATATTTTTGATGTGCTTTTATTTGGTTATT [CACACA_negctrl_site626]” is lower in “gcPBM binding intensity (ln)” value: 9.3 for the first, 6.59 for the second.

First: AAAAAAAATACATACACACACACACGCACATATATA [CACACA_site7645]
Second: ATTTTTTTATAATCAACCCATTTCCTACATTTTTAT [CACACA_negctrl_site1237]
The “gcPBM binding intensity (ln)” value of the first is higher: 7.45 for the first, 6.84 for the second.

First: CTTCATAAAAATTGCACACATATAATAATGTACATA [CACACA_site2212]
Second: TATTAAAAGGTGAGTACACACATATCTGAGTATATA [CACACA_site5192]
The “gcPBM binding intensity (ln)” value of the first is higher: 10.4 for the first, 6.83 for the second.

First: TTAAAAAGAGGTGACACACACATATAAATCTAAATC [CACACA_site3738]
Second: TAATATACTATAAATACACACAAGTGTACATACTTC [CACACA_site983]
The “gcPBM binding intensity (ln)” value of the first is lower: 6.22 for the first, 6.52 for the second.

Compared with “TACAATATAATTTAATGTACATGTGAATATATATAT [XGTACX_site4675]”, “TTGTGCTAAACAAAAAAAAATATATATAAAAAAATA [XGTACX_negctrl_site388]” is lower in “gcPBM binding intensity (ln)” value: 8.08 for the first, 6.44 for the second.

Going from “GTTATTAAATAATTCACACACATATATAAATAAATA [CACACA_site7129]” to “ATAAAAATATATGAAACACACAGTTTCTATAAGAAA [CACACA_site4156]”, the “gcPBM binding intensity (ln)” value falls from 6.7 to 6.08.

First: ATATGTATATAATAAGAACACACATATATTTAATTT [CACACA_site8961]
Second: ATTATTATAGATAAAACACACAATTTTGTTTTCACA [CACACA_site7792]
The “gcPBM binding intensity (ln)” value of the first is higher: 6.48 for the first, 6.33 for the second.

Going from “TTAACAAAGAAACACACACACACACCCAAAAAAAAA [CACACA_site516]” to “GCCATAAAGATATATACACACATAAAAAAAAGTTAT [CACACA_site6674]”, the “gcPBM binding intensity (ln)” value falls from 7.03 to 6.72.

Compared with “AAAAAAAAAATTAAATGTACATATATAATATATATA [XGTACX_site7245]”, “TTATATTTTATTATGTGTACGTATATAATATAATAT [XGTACX_site6230]” is lower in “gcPBM binding intensity (ln)” value: 7.1 for the first, 6.43 for the second.

First: AAACAATTATTATATTGTACATATATTACATTATTA [XGTACX_site1089]
Second: TAAAACTTAATGTTTTGTACATATTCTTCTTTATTT [XGTACX_site4271]
The “gcPBM binding intensity (ln)” value of the first is higher: 6.23 for the first, 6.16 for the second.

Going from “AATCAAAAAGGAACCATAATATTACAACTATATATA [CACACA_negctrl_site381]” to “TTTTATACATATTTTACACACTAAAATATACAGATA [CACACA_site4333]”, the “gcPBM binding intensity (ln)” value rises from 6.33 to 6.65.

First: TTACATATTCATAAAAGTACATAATTATAAAAGGTA [XGTACX_site906]
Second: AAAATTAATTTATTTACACACAATATTAAAATATTT [CACACA_site7512]
The “gcPBM binding intensity (ln)” value of the first is higher: 6.68 for the first, 6.66 for the second.

Going from “ACATGCAAGAAGAAATGTACTTAACATCTATATAGA [XGTACX_site7338]” to “ACTAAATAAATAAATATAATATATAAATATGTATGT [TGCATGCA_negctrl_site583]”, the “gcPBM binding intensity (ln)” value falls from 6.54 to 6.31.

Compared with “GTATATATGTTTTATACACACATTAAAGGAAATATA [CACACA_site984]”, “CACAAACAGACAAACACACACACACGGACATACATA [CACACA_site6350]” is higher in “gcPBM binding intensity (ln)” value: 6.68 for the first, 6.78 for the second.

First: TATAATATATAAAAATGTACACATAAATATAAGTAG [XGTACX_site665]
Second: TTTTTGTATTCTTCTTCTTCCAGACTACATTATGTC [XGTACX_negctrl_site235]
The “gcPBM binding intensity (ln)” value of the first is higher: 6.8 for the first, 6.59 for the second.

First: ATATATTTAAAATTGACACACATTTAATGACATTTT [CACACA_site3112]
Second: TATATATGGAAAAGAGTCAAAAAGAAAAAAGAAAAA [CACACA_negctrl_site1374]
The “gcPBM binding intensity (ln)” value of the first is higher: 6.26 for the first, 6.08 for the second.

First: TATGAAATATTTATACACAGAACTTCATAATTTTCA [TGCATGCA_negctrl_site509]
Second: CATTTTTTGCTTTCAACACACATACAATATATATAA [CACACA_site6127]
The “gcPBM binding intensity (ln)” value of the first is lower: 6.26 for the first, 7 for the second.

First: CTTTATTTTTTATACACACACAATATGTATATATAT [CACACA_site3550]
Second: AAGGATCACGCACAAACACACATATTTATATTTATA [CACACA_site6405]
The “gcPBM binding intensity (ln)” value of the first is lower: 7.24 for the first, 7.35 for the second.

First: TTTTTATTTTTTGAAACACACACAAAAAAAATGATA [CACACA_site8564]
Second: TAAGGATATATATATTCACACACACCGGGAAATATA [CACACA_site8020]
The “gcPBM binding intensity (ln)” value of the first is higher: 6.84 for the first, 6.71 for the second.

Compared with “AAACAAATATATATATGTACTTATAAAAAAAAAAAT [XGTACX_site2211]”, “TATTTGCAATATTATACACACATTAGATATTGCAAA [CACACA_site7565]” is higher in “gcPBM binding intensity (ln)” value: 6.64 for the first, 9.59 for the second.

Compared with “TAATATATATAACATATACACACGTTCATATATATA [CACACA_site462]”, “AACAAATTAATTCTAGTGCAGGACGTATTTGTGTAC [GTGCAC_site9907]” is higher in “gcPBM binding intensity (ln)” value: 6.58 for the first, 7.26 for the second.

Compared with “TACAAAATGTTATATCAATATAGATAAAAAAATGAA [XGTACX_negctrl_site285]”, “AAAAAAAAAAAAAAATGTACATATATAATATTTATA [XGTACX_site5117]” is lower in “gcPBM binding intensity (ln)” value: 6.63 for the first, 6.51 for the second.

Compared with “ATTAAATTAAAATAATGTACTTAATACTTTTGCTTA [XGTACX_site8404]”, “AACAATTTTTAAAGGTGTACAATATGTATATAAGAA [XGTACX_site254]” is higher in “gcPBM binding intensity (ln)” value: 6.17 for the first, 7.09 for the second.

First: AATTTTGAGATGTGGTGTACACAAAATTAGTTAGAC [XGTACX_site7033]
Second: TCAACGATCACTCGGTGTACTATAAATGAGAGAATT [XGTACX_site1820]
The “gcPBM binding intensity (ln)” value of the first is higher: 7.44 for the first, 6.3 for the second.

First: ATATATATATATAAAGGTACACATTTATTAAATATA [XGTACX_site7102]
Second: TCTTTAACAAGTTAAACACACATACCTATATACATA [CACACA_site7237]
The “gcPBM binding intensity (ln)” value of the first is higher: 8.85 for the first, 6.47 for the second.

First: TGGTGATATACGAAATGTACGCAAATCACAAAATAA [XGTACX_site8836]
Second: CGCGTATAACGAAATTGTACAAAAAAAATTAAACAT [XGTACX_site6813]
The “gcPBM binding intensity (ln)” value of the first is lower: 6.2 for the first, 7.06 for the second.

Going from “AAATAAAAATTAAAAAAATAGAAACGAATTGAATGC [TGCATGCA_negctrl_site365]” to “ATATATATAAATATATGTACATAAATATATTTGTAA [XGTACX_site6715]”, the “gcPBM binding intensity (ln)” value rises from 6.69 to 6.71.

First: AATTAAACTTTGTTTTTGTTTTTTTTTTTTATATTT [CACACA_negctrl_site1316]
Second: TTTTTTTTTATAAATACACACGTACGGGTGCATAAC [CACACA_site8444]
The “gcPBM binding intensity (ln)” value of the first is lower: 5.87 for the first, 10.1 for the second.

Compared with “ATCATGAAATATATTTGTACACATAATAATATAATA [XGTACX_site8798]”, “ATTTGGCAGAAACACACACACACACCCACCCACATA [CACACA_site589]” is higher in “gcPBM binding intensity (ln)” value: 6.86 for the first, 6.98 for the second.

Going from “ATATATATATATATATGTACACAGGACAATAATCCT [XGTACX_site6383]” to “TATTAAAAGGTGAGTACACACATATATGTGTATATA [CACACA_site7070]”, the “gcPBM binding intensity (ln)” value falls from 9.31 to 6.94.

Compared with “TTTTACTATACTTATGCACACAAGATATATACATAT [CACACA_site2968]”, “TAAAAAAATTCATGCACACGAAATAAAAAGCACCTT [CACACA_site4667]” is lower in “gcPBM binding intensity (ln)” value: 9.66 for the first, 8.88 for the second.

First: TTTTTTAAAAGATAATATTTTATTAATGTATTCTCA [GTGCAC_negctrl_site598]
Second: AAACATAAATTTTATTGTACATTATATAGAATTTTC [XGTACX_site576]
The “gcPBM binding intensity (ln)” value of the first is lower: 5.7 for the first, 6.29 for the second.

First: TTTTCATTTTTTCGTTGTACATAAATAATATATATT [XGTACX_site856]
Second: AATACATACATACATACACACATATATATATATTAT [CACACA_site3575]
The “gcPBM binding intensity (ln)” value of the first is higher: 7.53 for the first, 7.03 for the second.

First: AATCATATTAGTATGGTGCAATATATATATAAATAT [GTGCAC_site9800]
Second: GGAATAGTCGGGTGCATACACACCTTAAATATAATA [CACACA_site1081]
The “gcPBM binding intensity (ln)” value of the first is higher: 10.5 for the first, 7.86 for the second.

Going from “AAAGAAAATTCAATAGTGCATAAAAATATATATGTT [GTGCAC_site9680]” to “CACATGTATTTATAGGTGCGTAAAAACACTTTATAT [GTGCAC_site9501]”, the “gcPBM binding intensity (ln)” value falls from 8.62 to 6.97.

Going from “ACTAATTACTATAAAACACACATATATTTATTTATA [CACACA_site7263]” to “TTATAGAAACATTGGTGTACGATATTTACTTCTTTC [XGTACX_site7314]”, the “gcPBM binding intensity (ln)” value falls from 6.72 to 5.91.

Going from “GATAAACCATATATAACACACATATGAATATTGCAA [CACACA_site6735]” to “ATATCATATATAAGTCGTACGATGAATAGAATTTTT [XGTACX_site7586]”, the “gcPBM binding intensity (ln)” value falls from 6.73 to 6.7.

First: CACCCATACAGACATACACACACATATATATTAATA [CACACA_site8077]
Second: ACAGATGATCAAAATTGTACAGAGTTATATTATATT [XGTACX_site4642]
The “gcPBM binding intensity (ln)” value of the first is higher: 7.15 for the first, 6.39 for the second.

First: TTATTTAAAAATAGCACACATTATATATATATATAT [CACACA_site5556]
Second: CTTATACAAAAAAAAAGTACATAACATAATAAGAAT [XGTACX_site6782]
The “gcPBM binding intensity (ln)” value of the first is higher: 9.07 for the first, 6.97 for the second.

Compared with “GCTTAGTTATATAACTGTACTATTTTTATTTATATG [XGTACX_site884]”, “CTCATAGTTGGGTGCACACAAAAAATTAAAAAAATA [CACACA_site3032]” is higher in “gcPBM binding intensity (ln)” value: 6.54 for the first, 10.3 for the second.

Going from “AATAAGATAAGGAAAAGTACTTATAATTAAACTAAT [XGTACX_site1850]” to “AAATATAAGTAAATAAATAAATATATAAATATATAA [TGCATGCA_negctrl_site441]”, the “gcPBM binding intensity (ln)” value falls from 7.84 to 6.03.

Compared with “AAATACATACATTAATGTACAAATAGAAACACTCTT [XGTACX_site1512]”, “ATAAAGTAAGAAGAAATAATGATTTTCATGGAAAAC [XGTACX_negctrl_site322]” is lower in “gcPBM binding intensity (ln)” value: 6.85 for the first, 5.91 for the second.

First: ATACACTAGAAAATTTTATAGTATTATTAATGTTAA [GTGCAC_negctrl_site101]
Second: TTTTTATTCGTTAAATGTACAAAAAAAATGTTATAT [XGTACX_site2804]
The “gcPBM binding intensity (ln)” value of the first is lower: 6.22 for the first, 6.45 for the second.

Compared with “ATACCTCAAATTGATACACACAAAAAAAGTAAATTA [CACACA_site3134]”, “TTTTACTATACTTATGCACACAAGATAAATACATAT [CACACA_site5619]” is higher in “gcPBM binding intensity (ln)” value: 6.5 for the first, 10.3 for the second.
